In all, about 310,000 compounds went through this assay and about 14,000 (4.5%) showed an effect of 50% or more. The effect is printed as a negative number. The list shows a part of the results.
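Further: peak tail current of the secondary pulse compared with the same well before compound.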

The assay deals with human ether-à-go-go-related gene (hERG) potassium channel (human, UniProt Q12809). Put plainly: primary screen, population patch clamp on CHO cells stably expressing hERG.
Sequence of human ether-à-go-go-related gene (hERG) potassium channel (Q12809 whole entry, looked up): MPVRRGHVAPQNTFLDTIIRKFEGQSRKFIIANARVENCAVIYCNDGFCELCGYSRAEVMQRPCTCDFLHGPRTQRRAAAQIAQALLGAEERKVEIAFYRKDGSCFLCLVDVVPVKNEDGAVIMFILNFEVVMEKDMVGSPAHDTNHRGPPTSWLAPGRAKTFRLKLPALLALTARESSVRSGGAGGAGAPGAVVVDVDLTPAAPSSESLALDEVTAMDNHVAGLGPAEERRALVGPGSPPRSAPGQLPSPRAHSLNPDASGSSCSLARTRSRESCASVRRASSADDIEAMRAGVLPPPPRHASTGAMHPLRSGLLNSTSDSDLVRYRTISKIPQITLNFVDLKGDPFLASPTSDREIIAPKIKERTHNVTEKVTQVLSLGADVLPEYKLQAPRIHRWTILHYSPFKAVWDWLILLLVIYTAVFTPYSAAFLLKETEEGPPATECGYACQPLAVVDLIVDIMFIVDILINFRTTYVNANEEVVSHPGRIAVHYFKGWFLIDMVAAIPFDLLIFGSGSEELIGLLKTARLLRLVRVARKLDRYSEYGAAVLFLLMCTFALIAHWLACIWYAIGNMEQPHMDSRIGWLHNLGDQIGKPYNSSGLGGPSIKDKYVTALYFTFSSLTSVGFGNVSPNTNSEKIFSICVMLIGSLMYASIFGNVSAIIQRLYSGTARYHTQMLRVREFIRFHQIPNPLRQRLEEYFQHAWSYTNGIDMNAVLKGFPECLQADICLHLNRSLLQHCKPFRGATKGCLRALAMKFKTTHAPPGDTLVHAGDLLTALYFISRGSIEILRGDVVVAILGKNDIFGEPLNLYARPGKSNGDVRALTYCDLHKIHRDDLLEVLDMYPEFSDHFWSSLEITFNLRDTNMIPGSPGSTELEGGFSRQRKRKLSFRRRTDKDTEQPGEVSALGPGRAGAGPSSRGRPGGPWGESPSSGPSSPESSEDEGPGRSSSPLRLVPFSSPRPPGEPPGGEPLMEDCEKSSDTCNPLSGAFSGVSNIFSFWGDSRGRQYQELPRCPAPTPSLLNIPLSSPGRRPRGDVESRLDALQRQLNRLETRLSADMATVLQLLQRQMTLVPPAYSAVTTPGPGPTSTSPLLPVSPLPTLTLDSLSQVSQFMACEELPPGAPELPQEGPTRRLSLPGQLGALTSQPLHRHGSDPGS
On to `CC(=O)c1cccc(NC(=O)C2CCN(S(=O)(=O)c3ccc(C)cc3)CC2)c1`, for which the “hERG current change (%, negative = inhibition) at 10uM” value is recorded as 4.47%.
To `COc1ccccc1-n1c(SCC(=O)Nc2ccc(NC(C)=O)cc2)nc2c([nH]c3ccccc32)c1=O` belongs 7.94%.
With `NS(=O)(=O)c1ccc(CCNC(=O)COC(=O)C2CCC2)cc1` the figure was 12%; with `O=C(C1CCCO1)N1CCN(C(=S)Nc2cc(F)cc(F)c2)CC1` (centres unmarked), -7.26%.
Take `CCOC(=O)c1cccc(NS(=O)(=O)c2c(C)[nH]c(C)c2C(=O)N2CCCC2)c1`: the “hERG current change (%, negative = inhibition) at 10uM” value stood at 11%.
With `CCCCC(CC)COCCCN=Cc1c(O)[nH]c(=S)[nH]c1=O` (centres unmarked) the figure was -8.48%; with `CC(=O)Nc1ccc(C(=O)OCC(=O)Nc2ccccc2F)cc1`, 14.2%.
To `Nc1ccc(C(=O)c2cccs2)cc1[N+](=O)[O-]` belongs 17%.
To `CCc1nccn1S(=O)(=O)c1cccc([N+](=O)[O-])c1` belongs 9.64%; to `O=C(COc1ccccc1F)Nc1ccc(S(=O)(=O)NCc2ccco2)cc1`, -10.3%; to `CCOC(=O)C(=O)NC(C)c1ccccc1` (centres unmarked), 8.55%.
As for `CC(C)c1nnc(NC(=O)c2sc3ccccc3c2Cl)s1`, the “hERG current change (%, negative = inhibition) at 10uM” value is reported as -4.6%.
To `Cc1c(CCOC(=O)c2cccc([N+](=O)[O-])c2)sc[n+]1CC(=O)c1ccccc1.[Br-]` belongs -51.1%.
To `CCOC(=O)c1c(NC(=O)CSc2nnc(C)c(=O)[nH]2)sc(C)c1C` belongs 22.9%; to `O=C(O)CCSCCCN1C(=O)c2cccc3cccc(c23)C1=O`, 4.17%.
With `CC(=O)c1cc(C#N)c(SCc2ccccn2)nc1C` the figure was 4.21%.
On to `O=C(Cn1cnc2c(nnn2Cc2ccc(F)cc2)c1=O)NCC1CCCO1` (centres unmarked), for which the “hERG current change (%, negative = inhibition) at 10uM” value was 1.61%.
Take `Cc1c(Br)c([N+](=O)[O-])nn1CC(=O)Nc1nccs1`: the “hERG current change (%, negative = inhibition) at 10uM” value was found to be 0.945%.
As for `Cc1cc2n(n1)SC(Nc1cc(Cl)ccc1Cl)N2` (centres unmarked), the “hERG current change (%, negative = inhibition) at 10uM” value is 10.2%.
To `Cn1c(SCC(=O)NCc2ccc3c(c2)OCO3)nnc1-c1cccs1` belongs -17.1%; to `Cc1ccc(-c2nnc(N3CCOCC3)c3ccccc23)cc1S(=O)(=O)NCc1cccnc1`, -24.2%; to `O=C(OCC#CCSc1nnc(-c2ccc([N+](=O)[O-])cc2)o1)c1cccs1`, -10.1%.
To `CCC(C)NC(=O)C1c2ccccc2Oc2ccccc21` (centres unmarked) belongs 10.2%; to `Cc1cc(C)c(S(=O)(=O)c2cc(F)ccc2C)c(=O)[nH]1`, 18.1%.
With `O=C(N/N=C\c1cccnc1)C1c2ccccc2Oc2ccccc21` the figure was 0.415%.
Take `CCCSc1oc(-c2ccco2)nc1S(=O)(=O)c1ccc(C)cc1`: the “hERG current change (%, negative = inhibition) at 10uM” value is on record as 10.2%.
For `CC(C)NC(=O)NC(=O)COC(=O)c1ccc(NC(=O)CC#N)cc1`, the “hERG current change (%, negative = inhibition) at 10uM” value is reported as 3.15%.
As to `Cc1ccc(C(=O)c2coc3ccc(O)cc23)cc1`, the “hERG current change (%, negative = inhibition) at 10uM” value stood at 23.2%.
As for `O=C(CN1C(=O)NC2(CCCC2)C1=O)OCc1ccc(Cl)cc1Cl`, the “hERG current change (%, negative = inhibition) at 10uM” value is recorded as -20.9%.
For the molecule `COC(=O)Cc1ccc2oc(-c3cccnc3)nc2c1`, the “hERG current change (%, negative = inhibition) at 10uM” value is given as 19.8%.
With `O=C(NC1CCN(Cc2ccc3ccccc3c2)CC1)c1ccccc1` the figure was -66.3%.
`O=C(NS(=O)(=O)c1ccc(Cl)cc1)c1ccccc1`: the “hERG current change (%, negative = inhibition) at 10uM” value is listed as 2.47%.
With `Cc1[nH]c2ccccc2c1C(=O)/C=C\c1ccccc1Cl` the figure was 11.6%; with `CCCCNC(=O)CSc1nc2cc(OC)c(OC)cc2c(=O)n1Cc1ccc(OC)cc1`, -12.1%; with `O=C(Nc1ccnn1C1CCN(Cc2cccc(F)c2F)CC1)C1CCCC1`, -23.2%.
In the case of `CN(Cc1ccccc1)S(=O)(=O)c1ccc(C(=O)Nc2nnc(C3CC3)o2)cc1`, the “hERG current change (%, negative = inhibition) at 10uM” value was -41.6%.
Take `COc1ccc(N(CC(=O)N2CCN(Cc3ccccc3)CC2)S(C)(=O)=O)cc1OC`: the “hERG current change (%, negative = inhibition) at 10uM” value is recorded as 1.4%.
As to `O=C(C1=C[C@H](c2ccc(C(F)(F)F)cc2)C[C@H](OCc2ccc(CO)cc2)O1)N1CCN(Cc2ccccc2)CC1`, the “hERG current change (%, negative = inhibition) at 10uM” value was -15.2%.
To `CN(CC(=O)Nc1ccccc1F)S(=O)(=O)c1ccc2c(c1)n(C)c(=O)c(=O)n2C` belongs -12.5%.
With `CCN1CC2(COC(=O)c3ccccc3N)CCC(OC)C34C5CC6C(OC)CC(O)(C5C6OC)C(O)(C(OC)C23)C14` (centres unmarked) the figure was -11.5%; with `CNC(=O)[C@@]1(C)C=C[C@@H](Cc2ccccc2)N1C(=O)OC`, 17.7%; with `COc1ccc(CCNC(=O)[C@@H](NC(=O)N2CCn3c2nc2ccccc23)C(C)C)cc1OC`, -14.3%.
`CCOC(=O)N1CCC(NCCNC(=O)c2ccccc2)CC1.Cl`: the “hERG current change (%, negative = inhibition) at 10uM” value amounted to 6.13%.
For `CCC(C)NCCOCCOc1ccccc1-c1ccccc1.O=C(O)C(=O)O` (centres unmarked), the “hERG current change (%, negative = inhibition) at 10uM” value was -37.7%.

Values taken from publication PMC4336329 (PLoS ONE, 2015).
